This note sets out measurements from patent US20260184804A1 (KEY2BRAIN, published 2026).

The Kd is the concentration at which binding is half-saturated. Lower therefore signals a tighter complex. As usually defined, the koff is the first-order rate constant of dissociation. A word on the kon: it is a measure of how fast the partners come together. High values mean fast association, low ones slow association.

Substitutions are numbered along the chain they refer to.

For assay [1], the target named is T1, His-tagged ectodomain of human transferrin receptor 1 (hTfR1), amino acids R121-F760 (human, UniProt P02786 part only).
T1 construct: Made in CHO cells, purified by IMAC; also called human TfR1; ectodomain of hTfR1
The experiment in a line: SPR; KD of Table 4 against KD of Table 2. (In SPR one partner is held on a chip, and binding of the other changes the refractive index at the surface.)

Assay [2] has as its target T2, Apical domain construct of hTfR1 displayed on M13 phage (human).
T2 construct: also called hTfR1-apical; apical domain of hTfR1; not shown: M13 phage coat protein of phagemid pTG3 to which the domain is fused
T2 chain: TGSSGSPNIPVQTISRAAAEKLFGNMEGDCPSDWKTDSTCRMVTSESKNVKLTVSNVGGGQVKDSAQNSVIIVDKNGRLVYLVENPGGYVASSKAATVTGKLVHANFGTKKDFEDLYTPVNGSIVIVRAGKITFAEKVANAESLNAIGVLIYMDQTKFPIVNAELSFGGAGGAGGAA
The experiment in a line: Seqitope mutagenic scanning of the phage-displayed apical domain of hTfR1.

For assay [3], the target named is T1, His-tagged ectodomain of human …. The experiment in a line: SPR; binder captured on protein A, receptor as analyte 0.156-40 nM; with 250 nM hTf.
Assay [4] has as its target T3, His-tagged ectodomain of cynomolgus transferrin receptor 1 (cTfR1), amino acids R121-F760 (cynomolgus monkey, UniProt Q5RDH6 121-760 (Pongo abelii entry)).
T3 construct: Made in CHO cells; also called cynomolgus TfR1; cynomolgus monkey TfR1
T3 chain: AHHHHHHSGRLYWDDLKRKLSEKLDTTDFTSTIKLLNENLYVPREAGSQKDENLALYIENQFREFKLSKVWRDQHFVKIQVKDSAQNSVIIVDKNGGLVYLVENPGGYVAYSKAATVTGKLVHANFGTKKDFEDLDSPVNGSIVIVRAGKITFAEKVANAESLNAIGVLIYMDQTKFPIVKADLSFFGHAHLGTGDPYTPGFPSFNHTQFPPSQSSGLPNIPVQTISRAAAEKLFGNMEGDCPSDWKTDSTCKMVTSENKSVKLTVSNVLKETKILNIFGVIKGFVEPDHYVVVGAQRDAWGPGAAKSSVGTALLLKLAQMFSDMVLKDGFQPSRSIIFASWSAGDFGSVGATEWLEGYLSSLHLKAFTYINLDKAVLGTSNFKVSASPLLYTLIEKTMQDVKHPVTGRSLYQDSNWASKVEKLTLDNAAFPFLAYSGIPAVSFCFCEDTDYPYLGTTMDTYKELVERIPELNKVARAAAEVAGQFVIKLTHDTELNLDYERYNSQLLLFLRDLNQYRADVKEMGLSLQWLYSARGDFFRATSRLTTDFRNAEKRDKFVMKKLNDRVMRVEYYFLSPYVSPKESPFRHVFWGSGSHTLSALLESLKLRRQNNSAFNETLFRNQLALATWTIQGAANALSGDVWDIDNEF
The assay is described as above.

The target of assay [5] is T4, His-tagged ectodomain of mouse transferrin receptor 1 (mTfR1), amino acids S122-F763 (mouse, UniProt Q62351 part only).
T4 construct: Made in CHO cells; also called mouse TfR1
T4 sequence (Q62351 other isoform, or with tags, fused parts or gaps limits assumed): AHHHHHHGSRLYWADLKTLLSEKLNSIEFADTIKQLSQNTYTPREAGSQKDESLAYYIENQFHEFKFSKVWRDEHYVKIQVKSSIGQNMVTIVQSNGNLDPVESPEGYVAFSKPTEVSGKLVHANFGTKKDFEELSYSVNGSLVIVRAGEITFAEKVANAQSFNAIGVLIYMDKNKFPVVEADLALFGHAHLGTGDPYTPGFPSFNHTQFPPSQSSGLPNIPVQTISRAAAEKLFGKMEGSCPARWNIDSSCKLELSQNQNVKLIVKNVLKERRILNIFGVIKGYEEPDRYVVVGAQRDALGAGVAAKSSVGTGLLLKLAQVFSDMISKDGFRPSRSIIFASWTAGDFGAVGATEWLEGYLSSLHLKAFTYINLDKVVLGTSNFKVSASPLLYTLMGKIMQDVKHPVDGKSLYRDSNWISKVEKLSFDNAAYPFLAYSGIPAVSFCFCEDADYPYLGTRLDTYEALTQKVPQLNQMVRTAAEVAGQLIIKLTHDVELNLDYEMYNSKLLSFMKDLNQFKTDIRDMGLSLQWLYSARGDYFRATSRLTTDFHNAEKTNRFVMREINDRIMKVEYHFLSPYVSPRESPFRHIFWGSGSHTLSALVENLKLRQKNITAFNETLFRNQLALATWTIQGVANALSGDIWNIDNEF
As to the kind of experiment: SPR (Biacore T200); binder captured on protein A chip, mTfR1 as analyte.

Assay [6] has as its target T1, His-tagged ectodomain of human …. The experiment in a line: SPR; binder captured on protein A, receptor as analyte 0.156-40 nM; no hTf.
The target of assay [7] is T3, His-tagged ectodomain of cynomolgus …. The assay is described as above.
In assay [8] the target is T1, His-tagged ectodomain of human …. The experiment in a line: SPR (Biacore T200); binder captured on protein A chip, TfR1 ectodomain as analyte 0.16-100 nM.
The target is the same in assay [9]. The experiment in a line: SPR (Biacore 8K, single-cycle); VHH-Fc captured on protein A chip, hTfR1 as analyte 0.8-500 nM.
Assay [10] concerns the target T2, Apical domain construct of hTfR1 …. As to the kind of experiment: ELISA 'Binding to Apical-M13': plate coated with the construct, M13 phage displaying the apical domain of hTfR1 added, anti-M13-HRP detection (the legend calls this panel 8B).
Assay [11] concerns the target T1, His-tagged ectodomain of human …. The experiment in a line: SPR (Biacore 8K); VHH-Fc captured on protein A chip, hTfR1 as analyte.
In assay [12] the target is T2, Apical domain construct of hTfR1 …. As to the kind of experiment: ELISA 'Binding to Apical-M13': plate coated with the construct, M13 phage displaying the apical domain of hTfR1 added, anti-M13-HRP detection.
Assay [13] concerns the target T4, His-tagged ectodomain of mouse …. As to the kind of experiment: SPR (Biacore T200); binder captured on protein A chip, TfR1 ectodomain as analyte 0.16-100 nM.

B1: KB_A01 Fc fusion (dimeric VHH-Fc with human IgG1 Fc) (Fc fusion)
chain: QVQLQESGGGSVQAGGSLSLSCAASGSIFGSKRMGWFRQAPGEQRDVVATITYRGTTEYADSVKGRFTISRDNAKNTVYLQMNNLKPEDTAVYYCWMFTTDNYWGQGTQVTVSSGG[human IgG1 Fc not written out]
On to B1, for which, in [1], the “fold higher affinity than the free monomeric KB_A01” value was determined as 23 fold. Further, in assay [2], the “Binding Ratio (BR) of residue D242” value came out at 2.08, the “Binding Ratio (BR) of residue D245” value stood at 2.2, the “Binding Ratio (BR) of residue D356” value worked out at 1.42 and the “Binding Ratio (BR) of residue G351” value came to 2.14. Also, in assay [2], the “Binding Ratio (BR) of residue L246” value was 2.2, the “Binding Ratio (BR) of residue P354” value came out at 2.45 and the “Binding Ratio (BR) of residue R364” value was found to be 1.74. In [3], this molecule came in with a Kd of 0.206 nM, a koff of 6.03e-05 s⁻¹ and a kon of 293000 M⁻¹ s⁻¹. In assay [4], binding was characterised by a dissociation constant (Kd) of 0.189 nM, the koff came out at 2.86e-05 s⁻¹ and the kon worked out at 151000 M⁻¹ s⁻¹. For the same molecule, the binding result in [5] was “no binding (tested: 0.16 to 100 nM)”. In [6], this molecule registered a Kd of 0.081 nM, a koff of 6.49e-05 s⁻¹ and a kon of 801000 M⁻¹ s⁻¹. In assay [7], the affinity, expressed as Kd, was 0.403 nM; the koff is 7.5e-05 s⁻¹; the kon came out at 186000 M⁻¹ s⁻¹. Also, in [8], binding was put at a Kd of 0.177 nM, the koff was found to be 8.49e-05 s⁻¹ and the kon turned out to be 476000 M⁻¹ s⁻¹.

B2: KB_A10 Fc fusion (Fc fusion)
chain: B1 chain with S19R, G26E, S27I, E43K, V47L, R54H, E58K, K75N, V92F
For B2, in assay [9], the Kd stood at 1.84 nM, the koff turned out to be 0.00011 s⁻¹ and the kon was 59400 M⁻¹ s⁻¹.

B3: KB_A03 Fc fusion (Fc fusion)
chain: B1 chain with T52A, Y53V, R54A, T56S
As to B3, in assay [2], the “Binding Ratio (BR) of residue D242” value turned out to be 1.76, the “Binding Ratio (BR) of residue D245” value was 1.64, the “Binding Ratio (BR) of residue D356” value was 2.24 and the “Binding Ratio (BR) of residue G351” value is 1.56. Further, in assay [2], the “Binding Ratio (BR) of residue L246” value was determined as 1.55, the “Binding Ratio (BR) of residue P354” value was 1.94 and the “Binding Ratio (BR) of residue S355” value was determined as 1.54. Moreover, in assay [9], binding was put at a Kd of 3.62 nM, the koff was 0.000992 s⁻¹ and the kon came to 274000 M⁻¹ s⁻¹.

B4: KB_A07 Fc fusion (Fc fusion)
chain: B1 chain with T52A, Y53V, R54A, F98Y, T99A, D101A
In assay [9], B4 had a Kd of 0.699 nM, a koff of 0.000108 s⁻¹ and a kon of 154000 M⁻¹ s⁻¹.

B5: KB_A04 Fc fusion (Fc fusion)
chain: B1 chain with F98Y, T99A, D101A
Take B5: in [10], the binding result is given as “binds”. In assay [9], this molecule displayed a Kd of 0.414 nM, a koff of 0.000119 s⁻¹ and a kon of 287000 M⁻¹ s⁻¹.

B6: KB_A05 Fc fusion (Fc fusion)
chain: B1 chain with S31F, K32N, R33A, T52A, Y53V, R54A, T56S
B6: the binding result in assay [11] was “no binding (tested: 0.8 to 500 nM)”.

B7: KB_A06 Fc fusion (Fc fusion)
chain: B1 chain with S31F, K32N, R33A, F98Y, T99A, D101A
Take B7: in assay [9], the Kd came out at 5.12 nM, the dissociation rate constant (koff) worked out at 0.000353 s⁻¹ and the kon was determined as 69000 M⁻¹ s⁻¹.

B8: KB_A08 Fc fusion (Fc fusion)
chain: B1 chain with S31F, K32N, R33A, T52A, Y53V, R54A, T56S, F98Y, T99A, D101A
Turning to B8, the binding result in assay [11] is listed as “no binding (tested: 0.8 to 500 nM)”.

B9: KB_A11 Fc fusion (Fc fusion)
chain: B1 chain with S11L, S27D, E43Q, Y53V, R54G, N84S, D101N
For B9, the binding result in assay [10] is “binds”. In assay [9], this molecule yielded a Kd of 0.242 nM, a koff of 8.76e-05 s⁻¹ and a kon of 362000 M⁻¹ s⁻¹.

B10: KB_A09 Fc fusion (Fc fusion)
chain: B1 chain with S11L, S27D, F29N, E43K, Q44A, Y53V, A60E, N84S, D101T
As to B10, in assay [2], the “Binding Ratio (BR) of residue D242” value worked out at 2.87, the “Binding Ratio (BR) of residue D245” value is 3.59, the “Binding Ratio (BR) of residue D356” value came out at 3.95 and the “Binding Ratio (BR) of residue G351” value was found to be 3.2. In [2], the “Binding Ratio (BR) of residue L246” value turned out to be 2.82, the “Binding Ratio (BR) of residue P354” value turned out to be 3.51 and the “Binding Ratio (BR) of residue S355” value came to 2.24. In assay [9], this molecule showed a Kd of 0.15 nM, a koff of 6.09e-05 s⁻¹ and a kon of 405000 M⁻¹ s⁻¹.

B11: KB_A02 Fc fusion (Fc fusion)
chain: B1 chain with S31F, K32N, R33A
notes: also called KB_0A2
Consider B11, for which, in assay [11], the binding result was “no binding (tested: 0.8 to 500 nM)”.

B12: BV, benchmark VHH (WO 2020/144233) fused to human IgG1 Fc (Fc fusion)
chain: EVQLVESGGGVVQPGGSLKLSCVASGTDFSINFIRWYRQAPGKQREFVAGFTATGNTNYADSMKGRFTISRDNTKNAVYLQIDSLKPEDTAVYYCYMLDKWGQGTQVTVSSGG[human IgG1 Fc not written out]
notes: also called BV-Fc; benchmark VHH-Fc
Regarding B12, the Kd in [3] came out at 0.207 nM; in [6], 0.000531 nM; in assay [8], 0.00228 nM; in assay [13], 0.444 nM. The koff was 0.000113 s⁻¹ in [3], 2.86e-07 s⁻¹ in [6], 1.26e-06 s⁻¹ in assay [8] and 0.00017 s⁻¹ in assay [13]. The kon was found to be 549000 M⁻¹ s⁻¹ in assay [3], 538000 M⁻¹ s⁻¹ in assay [6], 551000 M⁻¹ s⁻¹ in assay [8] and 382000 M⁻¹ s⁻¹ in assay [13]. Further, the binding result in assay [12] was “no binding (tested: not shown on the sheet)”.
